Experimental data: the supplement of paper PMC10126150
Values marked as one replicate rest on one cluster of the flow cell; about a third of the high ones do not repeat.

System: ATP
Assay: switch fluorescence ratio, 500 uM ATP over buffer (Cy3 cluster intensity, sum of 5 cycles each) (fold (ratio)); higher = stronger signal-on switching upon ATP binding; sequences stand for … in TCGTCGGCAGCGTCAGATGTGTATAAGAGACAGTTTTTTTTTTTTTTTTTTTTTTTTT…TC
Conditions: aptamer strand: ATP DNA aptamer (quencher-CACCTGGGGGAGTATTGCGGAGGAAGG + anchor), 100 nM annealed; ATP concentration: 500 uM; one replicate
How it was run: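 Clusters with intensities outside 100-1000 RFU were excluded. The remaining Cy3-labelled switching-strand clusters on a modified Illumina MiSeq flow-cell had been annealed to 100 nM quencher-labelled ATP aptamer and imaged in selection buffer, then after 15 min with 500 uM ATP at 22 °C, for five cycles separated by NaOH stripping and re-annealing. The fluorescence ratio, averaged per switch-domain sequence, is each cluster's summed target-cycle Cy3 intensity over its summed buffer-cycle Cy3 intensity.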
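Note: ATP exposure 15 min at 22 °C before imaging.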

Row | Sequence | switch fluorescence ratio
1 | CGGGATCGAA | 0.936
2 | TCCATACATG | 1
3 | ATACAGTTAA | 1.02
4 | CACCTGGAGT | 1.05
5 | GAGAGTAGC | 1.02
6 | GCAGCCACCC | 1.18
7 | CATGCGAGGT | 1.04
8 | TCAGTTCGCT | 1.04
9 | TCGACGCCTG | 1.22
10 | CCCAGGGCTT | 1.41
11 | GATTCTGGTC | 1.04
12 | GAGTTGAGGC | 0.972
13 | AGTTCTCCTA | 0.97
14 | GCACAGGACA | 1.19
15 | CAAGGCGCTG | 0.963
16 | AAATGAGAGG | 1.03
17 | TCCGAGACG | 1.33
18 | CTGAAGTTAG | 1.08
19 | TTTTCTCGTT | 0.978
20 | CGAGCGAGTC | 0.96
21 | GAGAGTTGAT | 0.969
22 | TCGGGCTTGG | 0.97
23 | AGGGGGACCG | 1.09
24 | AGATATTG | 0.988
25 | AGTCTCTGCC | 0.968

Row | Sequence | switch fluorescence ratio
26 | TACCGAACAA | 1.25
27 | CAATAGTTTG | 0.98
28 | CTTAGCGTGA | 1.05
29 | TTTAAGGAAG | 1
30 | TGACCCGAGG | 1.05
31 | TACGAGGATC | 1.02
32 | GGTGGTCCGT | 1.03
33 | CATGAGCAA | 2.96
34 | GGCACAGGCG | 1.14
35 | GTGGGACCGT | 1.02
36 | TAAGATCTTC | 1.05
37 | TTCGAAAACT | 1
38 | GTGTAACTAC | 1.04
39 | TGGAAACCGT | 1.13
40 | CCATCCATGT | 1.05
41 | TTCATACAGG | 1.04
42 | AGCGTCACGG | 1.04
43 | TCAAATAGAT | 0.999
44 | CGCTTAATTT | 0.984
45 | GGCGGTTATC | 0.993
46 | CAAGGGGAT | 1.19
47 | GCTTGTTCTG | 0.953
48 | TTTTCCCTTT | 1.04
49 | CCTTCGATTT | 1.25
50 | CAACGAGATT | 1

Row | Sequence | switch fluorescence ratio
51 | CTGTGTGCTC | 1.1
52 | AAAAATGGAT | 1.01
53 | ATTCTAGGTT | 1.02
54 | TAAGGCTATT | 1.01
55 | CACGTGGAAG | 1.01
56 | GCTCGTCGCA | 0.998
57 | GACCGTACGT | 1.31
58 | ACGGATTCGG | 1.01
59 | ACCTATGACC | 1.08
60 | CAAATCTTA | 1.04
61 | TACTTCCCGA | 1.05
62 | AGGTTCCCGA | 0.985
63 | TAGAACGTTT | 0.981
64 | TGTGGTAA | 1.02
65 | CACGATGGCA | 1.21
66 | ATCCAGAAAC | 1.04
67 | GCAGTGCATG | 0.967
68 | ACGGCCGGTT | 1.06
69 | GTGTGGAAAA | 1.04
70 | TTTTTGCGTG | 0.98
71 | ATATCAGCT | 1.02
72 | CACGTGACCT | 1.21
73 | CGCATGGGGA | 1.05
74 | AACCTAGTGG | 1.02
75 | TTTGTCACTT | 1.02

Row | Sequence | switch fluorescence ratio
76 | TACATGATAT | 0.993
77 | TAGTGTTGTT | 0.945
78 | ATTCATAGTG | 1.01
79 | TATGAAGTAA | 0.997
80 | ATACTTGGTG | 1.09
81 | AAAGGATCAC | 1.02
82 | TACTCCTTTT | 0.998
83 | AGGCATTTGG | 0.991
84 | CTCATTGGTT | 1.08
85 | CTCTTGGTGG | 0.998
86 | CAAGGCAGTA | 1.04
87 | ATTCGATGTA | 0.974
88 | GATAGTCGAC | 1.01
89 | ATCGTATCGG | 0.965
90 | GAAACGTATA | 1.1
91 | ATACGTGGCT | 1.03
92 | GGGACAAATC | 0.996
93 | ATAGAGTCTA | 0.999
94 | TCTTGATAGA | 1.01
95 | CGATATAGTA | 1.01
96 | GTGGGGTTAC | 1.04
97 | CACTTGAGAC | 1
98 | GTTGCCAACT | 1
99 | TTTCGGGTTC | 2.15
100 | CAGAAGCCTT | 1.03

Row | Sequence | switch fluorescence ratio
101 | AATAGACGTA | 1.03
102 | GGGGCGGGCG | 1.09
103 | AACACCGTGT | 1.03
104 | CGAGAGGGTT | 0.981
105 | ATATCGTAAA | 1.01
106 | ATTGGTGGGC | 0.968
107 | CCATTGGTCA | 1
108 | ACATAAGGGG | 2.48
109 | TTTCACCTCA | 1.39
110 | ACACCAAGGG | 1
111 | ATAGCCTTGT | 0.97
112 | TCTTACCCCC | 3.05
113 | AAAAAAGATA | 0.989
114 | CTGCCCGTGT | 1
115 | AAAATAGCGA | 0.922
116 | CGTGAATCGG | 0.994
117 | GCGGGAATAG | 1.18
118 | ATCTCAGGTC | 0.997
119 | CGTCATGTTA | 1
120 | GTCGAACTGT | 0.995
121 | TCTAAGTCGT | 0.914
122 | TTTAGCCTCT | 0.967
123 | AGGTCAATAG | 1.33
124 | CCATGTCCG | 0.994
125 | GCACGTAGAA | 1.11

Row | Sequence | switch fluorescence ratio
126 | CCACATCTGG | 0.955
127 | GGTTCGTTAG | 1.03
128 | GGATGGAAGA | 1.03
129 | ACACGATTTG | 1.02
130 | ATCTACGAAT | 1.09
131 | TTACGCCAGT | 1.04
132 | TAGCAACATG | 1.03
133 | AATTATAACT | 1.08
134 | CCGTATAGGG | 1.29
135 | CCCCTGAGGC | 1.06
136 | TAGCGTTAAT | 1.05
137 | AATGATGAGT | 0.991
138 | GCTAATCTTA | 1.05
139 | CAACCAGGT | 1.63
140 | TAAAAATAAC | 1.22
141 | CGACCAGGCA | 1.1
142 | CTGTGAGTCG | 0.989
143 | CCACTAGGAA | 1.02
144 | TATGGCCGGT | 1.03
145 | ATGGCATTTC | 0.991
146 | TCTGATTTTG | 1.04
147 | AATAAAAGG | 0.981
148 | TCTTGGATCG | 1.03
149 | CGGGACGCTG | 0.957
150 | AAACAGTACA | 1.16

Row | Sequence | switch fluorescence ratio
151 | GGTGGTTGAC | 1.05
152 | ACAAGGGTGG | 0.998
153 | TACTCGACGT | 1.05
154 | TCAATGCTAT | 1.05
155 | CTGCATATGA | 1.54
156 | GGTTATCGTC | 0.991
157 | AGTCAATTTT | 0.986
158 | TAATGCAACA | 0.978
159 | TAGTGATGAA | 1.03
160 | TACGCCTCAT | 1.09
161 | TTCATTAACC | 1.05
162 | CTGTATGCAT | 1.06
163 | CAGTGAGATC | 1.21
164 | AAAAGGCC | 0.991
165 | TTCACTTAA | 0.953
166 | GCACTGGGGG | 1
167 | TAGTATGTAT | 0.966
168 | AAGCTTAACG | 1.01
169 | TTGTTGGTGT | 1.01
170 | GTATTCACGT | 1.03
171 | CGTACGCGGT | 1.25
172 | TTAAACTCAG | 1
173 | GGGGTCGCCA | 0.995
174 | CGAATCTACA | 1.02
175 | AGAAAGGTGG | 1.01

Row | Sequence | switch fluorescence ratio
176 | ATTTACTGTA | 1.08
177 | GATAGTTACG | 1.02
178 | CGTGGACTTC | 1.01
179 | GATTATGAT | 1.04
180 | TTCAGCATGG | 0.976
181 | GGTCGCTGGA | 1.24
182 | GATGGGCATA | 1
183 | TGGAACTACT | 1
184 | TGTTTGCTGG | 1.22
185 | TCATCGGCGC | 1.23
186 | TAAGTCCTCG | 1
187 | GATATGGTGT | 0.999
188 | GTGAATCATA | 0.959
189 | CGCATACCCT | 2.79
190 | TCATCCATAC | 3.41
191 | TATGGCTCGA | 1.01
192 | GTTACATGGT | 1.03
193 | ACGATACCGG | 1.51
194 | AATGATTATG | 1.01
195 | GTGGTTTAC | 1.02
196 | TACAAACTGG | 1.2
197 | TTGGTTCTTC | 1.61
198 | CAACCCCTCT | 1.05
199 | TGCTATTACG | 1.04
200 | GCTGATTCGG | 1.02
